# The supplement of paper PMC9446081
# Screen size: about 39,000 compounds; about 220 (0.56%) showed activity. This is one part of the list.
# Tested on: Escherichia coli K-12 BW25113
# Assay: relative growth (OD600 normalised to plate interquartile mean) (fraction); higher = less growth inhibition, active = 0.2 or less
# Details: 50 µM; LB; incubation time: overnight (16-24 h)
# 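Note: static incubation at 37 °C against the wild-type strain, values averaged over two biological replicates.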
row,SMILES,relative growth
1,Cn1cc(N2C[C@]3(CCN(CCO)C3)CC2=O)cn1,inactive: 0.982
2,CN(C)C(=O)C[C@@H]1CC[C@@H](NC(=O)C2CCOCC2)[C@@H](CO)O1,inactive: 1.03
3,COc1ccc(NC(=O)N(C)C[C@H]2OCCCC[C@@H](C)Oc3ccc(NC(=O)Nc4ccc(C(F)(F)F)cc4)cc3C(=O)N([C@H](C)CO)C[C@H]2C)cc1,inactive: 1.04
4,COc1ccc(CN(C)C[C@@H]2OCCCC[C@H](C)Oc3ccc(NC(=O)C4CCCCC4)cc3C(=O)N([C@@H](C)CO)C[C@H]2C)cc1,inactive: 1.01
5,C[C@H]1CN([C@@H](C)CO)C(=O)c2cc(NS(=O)(=O)c3ccc(Cl)cc3)ccc2O[C@@H]1CN(C)S(=O)(=O)c1cn(C)cn1,inactive: 1.01
6,C[C@@H]1CN([C@@H](C)CO)C(=O)Cc2cc(NS(=O)(=O)c3ccc(Cl)cc3)ccc2O[C@H]1CN(C)Cc1ccc(C(F)(F)F)cc1,inactive: 1.03
7,C[C@H]1CN([C@@H](C)CO)C(=O)c2cc(NS(=O)(=O)c3ccc(Cl)cc3)ccc2O[C@H]1CN(C)Cc1ccc(Cl)c(Cl)c1,inactive: 1
8,O=C(C[C@@H]1C[C@@H]2c3cc(NC(=O)C4CCOCC4)ccc3O[C@@H]2[C@H](CO)O1)NCCN1CCCCC1,inactive: 0.996
9,C[C@H]1CN([C@@H](C)CO)S(=O)(=O)c2ccc(Br)cc2O[C@@H]1CN(C)C(=O)Nc1ccc2c(c1)OCO2,inactive: 0.954
10,C[C@H]1CN([C@@H](C)CO)C(=O)c2cccc(NC(=O)c3ccc(-c4nccs4)cc3)c2O[C@@H]1CN(C)C(=O)Nc1ccc2c(c1)OCO2,inactive: 1
11,C[N+](C)(C)CCO.[Cl-],inactive: 1.06
12,C[C@@H]1CCCCO[C@@H](CN(C)CC2CCCCC2)[C@H](C)CN([C@H](C)CO)C(=O)c2cc(NC(=O)CCC(F)(F)F)ccc2O1,inactive: 0.995
13,C[C@@H]1CCCCO[C@H](CN(C)Cc2ccc3c(c2)OCO3)[C@@H](C)CN([C@H](C)CO)C(=O)c2cc(NC(=O)Cc3ccccc3)ccc2O1,inactive: 1.04
14,C[C@@H]1CN([C@@H](C)CO)C(=O)c2cc(NC(=O)NC3CCCCC3)ccc2O[C@@H](C)CCCCO[C@H]1CN(C)C(=O)c1ccccc1,inactive: 1.02
15,COc1ccc(S(=O)(=O)N(C)C[C@H]2Oc3ccc(NC(=O)NC(C)C)cc3CC(=O)N([C@H](C)CO)C[C@H]2C)cc1,inactive: 1.01
16,Cc1ccc(S(=O)(=O)Nc2ccc3c(c2)CC(=O)N([C@H](C)CO)C[C@H](C)[C@@H](CN(C)S(=O)(=O)c2ccccc2)O3)cc1,inactive: 0.979
17,C[C@H](CO)N1C[C@H](C)[C@H](CN(C)S(=O)(=O)c2cn(C)cn2)Oc2ncc(Br)cc2C1=O,inactive: 0.992
18,C[C@@H]1CN([C@@H](C)CO)C(=O)c2cccc(NC(=O)c3nc4ccccc4s3)c2O[C@@H]1CN(C)Cc1ccc(Cl)c(Cl)c1,inactive: 1.01
19,O=C(C[C@@H]1C[C@@H]2c3cc(NC(=O)NC4CCCC4)ccc3O[C@@H]2[C@@H](CO)O1)NCc1ccc(-c2ccccc2)cc1,inactive: 1.02
20,Cc1ccc(S(=O)(=O)N2C[C@H](O)COC[C@H]3O[C@@H](CC(=O)NCc4ccc5c(c4)OCO5)CC[C@@H]32)cc1,inactive: 1

row,SMILES,relative growth
1,C[C@@H]1CCCCO[C@@H](CN(C)S(=O)(=O)c2ccc(Cl)cc2)[C@@H](C)CN([C@H](C)CO)C(=O)c2cc(NC(=O)Nc3ccc(F)cc3)ccc2O1,inactive: 1.02
2,O=c1[nH]cnc2[nH]ncc12,inactive: 1.12
3,COc1ccc(CNC(=O)c2cc3c(c(-c4cccc(-c5ccc(C#N)cc5)c4)n2)[C@H](CCO)N([S@@](=O)C(C)(C)C)C3)cc1,inactive: 0.931
4,CCn1cnc2c(=O)[nH][nH]c(=O)c21,inactive: 1.03
5,COc1cccc(CN2C[C@@H](C)[C@H](OC)CN(C)C(=O)c3ccc(NS(=O)(=O)c4cn(C)cn4)cc3OC[C@H]2C)c1,inactive: 1
6,CN1C(=O)c2cc(NC(=O)c3ccc(F)c(F)c3)ccc2OC[C@@H]2O[C@@H](CC(=O)N3CCOCC3)CC[C@@H]21,inactive: 0.984
7,O=C(C[C@@H]1C[C@@H]2c3cc(NS(=O)(=O)c4ccc(F)cc4)ccc3O[C@@H]2[C@@H](CO)O1)NCc1ccccc1,inactive: 1.01
8,CC(C)(C)[S@@](=O)N1Cc2cc(C(=O)NCc3ccccc3F)nc(-c3cccc(-c4cccnc4)c3)c2[C@H]1CCO,inactive: 0.992
9,COc1ccc(NC(=O)Nc2ccc3c(c2)C(=O)N([C@H](C)CO)C[C@H](C)[C@@H](CN(C)Cc2ccc(-c4ccccc4)cc2)O3)cc1,inactive: 1.03
10,C[N+](C)(C)CCCCNC(=O)[C@@H]1C[C@@H]2C(=O)NCC(=O)N2[C@@H]1c1ccc(O)cc1,inactive: 1.02
11,C[C@@H]1CCCCO[C@@H](CN(C)C(=O)Nc2ccc(F)cc2)[C@H](C)CN([C@@H](C)CO)C(=O)c2cc(NC(=O)Nc3ccc(F)cc3)ccc2O1,inactive: 1.02
12,C[C@@H]1CN([C@H](C)CO)C(=O)c2cccc(NC(=O)c3ccc(-c4nccs4)cc3)c2O[C@@H]1CN(C)C(=O)Nc1ccc(C(F)(F)F)cc1,inactive: 0.975
13,Cc1noc(C)c1NC(=O)N(C)C[C@@H]1Oc2c(NC(=O)Nc3cccc4ccccc34)cccc2C(=O)N([C@H](C)CO)C[C@H]1C,inactive: 0.997
14,C[C@H](CO)N1C[C@H](C)[C@H](CN(C)S(=O)(=O)c2cn(C)cn2)Oc2ncc(C#Cc3ccccc3)cc2C1=O,inactive: 1.05
15,O=C(Oc1cccc2cccnc12)c1ccccc1,inactive: 0.894
16,Cc1noc(C)c1S(=O)(=O)N(C)C[C@H]1Oc2ccc(NS(=O)(=O)c3ccccc3)cc2CC(=O)N([C@@H](C)CO)C[C@H]1C,inactive: 0.98
17,CC(=O)N1[C@H](Cn2cncn2)C[C@H]2CN(C(N)=O)CC[C@H]21,inactive: 0.977
18,C[C@H]1CCCCO[C@@H](CN(C)CC2CC2)[C@@H](C)CN([C@@H](C)CO)C(=O)c2cc(NC(=O)c3ccccc3)ccc2O1,inactive: 0.981
19,COc1cc2c(cc1O)[C@H](c1ccc(CN3CCCC3)cc1)N(Cc1sc3ccccc3c1Cl)CC2,inactive: 0.974
20,C[C@H]1CN([C@@H](C)CO)C(=O)c2cc(NC(=O)CCCN(C)C)ccc2O[C@H]1CN(C)S(=O)(=O)c1cn(C)cn1,inactive: 0.893

row,SMILES,relative growth
1,CCc1cc(=O)oc2c(C)c(O[C@@H]3O[C@H](CO)[C@@H](O)[C@H](O)[C@H]3O)ccc12,inactive: 0.98
2,C[C@H]1CN([C@@H](C)CO)C(=O)c2cccc(NC(=O)C3CCCCC3)c2O[C@H]1CN(C)Cc1ccc(Oc2ccccc2)cc1,inactive: 0.978
3,CO[C@@H]1CN(C)C(=O)c2cc(NC(=O)Nc3cccc(Cl)c3)ccc2OC[C@H](C)N(C(=O)Nc2c(C)noc2C)C[C@@H]1C,inactive: 1.02
4,Cc1cccc(S(=O)(=O)N2C[C@H](O)COC[C@H]3O[C@@H](CC(=O)NCc4ccncn4)CC[C@@H]32)c1,inactive: 0.999
5,C[C@H]1CCCCO[C@@H](CN(C)Cc2ccc(Cl)c(Cl)c2)[C@@H](C)CN([C@@H](C)CO)C(=O)c2cc(NC(=O)Nc3ccc(C(F)(F)F)cc3)ccc2O1,inactive: 1
6,Cc1noc(C)c1S(=O)(=O)Nc1ccc2c(c1)C(=O)N([C@@H](C)CO)C[C@@H](C)[C@H](CN(C)Cc1ccc(C(F)(F)F)cc1)OCCCC[C@@H](C)O2,inactive: 0.958
7,C[C@@H]1CCCCO[C@@H](CN(C)C(=O)Nc2ccc3c(c2)OCO3)[C@H](C)CN([C@H](C)CO)C(=O)c2cc(NC(=O)c3ccccc3)ccc2O1,inactive: 1.01
8,Cc1noc(C)c1NC(=O)Nc1ccc2c(c1)C(=O)N([C@@H](C)CO)C[C@@H](C)[C@H](CN(C)CC1CC1)OCCCC[C@@H](C)O2,inactive: 0.816
9,C[C@H](CO)N1C[C@H](C)[C@H](CN(C)S(=O)(=O)c2ccccc2)Oc2ncc(-c3ccccc3)cc2C1=O,inactive: 0.997
10,CCS(=O)(=O)Nc1ccc2c(c1)C(=O)N(C)[C@@H]1CC[C@@H](CC(=O)NCCOC)O[C@H]1CO2,inactive: 1.01
11,C[C@@H]1CCCCO[C@H](CN(C)S(=O)(=O)c2ccccc2)[C@@H](C)CN([C@H](C)CO)C(=O)c2cc(NC(=O)Nc3cccc4ccccc34)ccc2O1,inactive: 1.01
12,C[C@H]1CN([C@@H](C)CO)C(=O)c2cc(NS(=O)(=O)c3cn(C)cn3)ccc2O[C@H]1CN(C)Cc1ccccc1,inactive: 0.966
13,C[C@@H]1CN([C@@H](C)CO)C(=O)c2cc(NC(=O)Cn3cnnn3)ccc2O[C@H]1CN(C)Cc1ccc(-c2ccccc2)cc1,inactive: 0.909
14,COC(=O)[C@H](Cc1ccccc1)N1CC2=CCCC=C[C@H]2[C@@H]1[C@@H](O)CCn1cc(-c2ccc(C(=O)NO)s2)nn1,inactive: 0.993
15,CC(C)NC(=O)N(C)C[C@H]1Oc2ccc(NC(=O)NC3CCCCC3)cc2C(=O)N([C@@H](C)CO)C[C@H]1C,inactive: 0.973
16,Cc1ccc(S(=O)(=O)N(C)C[C@H]2OCCCC[C@@H](C)Oc3ccc(NC(=O)Nc4ccccc4)cc3C(=O)N([C@@H](C)CO)C[C@@H]2C)cc1,inactive: 1.04
17,COc1ccc2c3c([nH]c2c1)[C@H](CO)N(Cc1ccc(cc1)Cl)C[C@]13CCN(CC1)Cc1ccccc1,inactive: 0.995
18,C[C@@H]1CCCCO[C@H](CN(C)Cc2ccc(Cl)c(Cl)c2)[C@H](C)CN([C@@H](C)CO)C(=O)c2cc(NS(C)(=O)=O)ccc2O1,inactive: 0.979
19,O=C1CCCN1C1CCNCC1,inactive: 1.01
